Two molecules from paper PMC10184828 can be followed below.

In assay [1] the target is Sec16^ΔS4B–HA (S. cerevisiae) (UniProt P48415). As to the kind of experiment: co-IP; octylglucoside-solubilized extracts of sed4Δ sec16Δ cells; immunoprecipitation with anti-HA antibody, blot with anti-HA and anti-V5; 25 mM HEPES pH 8.0, 50 mM NaCl, 1 mM EDTA, 5% glycerol, 4°C.
For another assay, the target named is Sec16–HA (S. cerevisiae) (UniProt P48415). The description is as above.
Assay [2] has as its target T1, Sed4^Δ544L–Flag (S. cerevisiae) (UniProt P25365).
T1 sequence: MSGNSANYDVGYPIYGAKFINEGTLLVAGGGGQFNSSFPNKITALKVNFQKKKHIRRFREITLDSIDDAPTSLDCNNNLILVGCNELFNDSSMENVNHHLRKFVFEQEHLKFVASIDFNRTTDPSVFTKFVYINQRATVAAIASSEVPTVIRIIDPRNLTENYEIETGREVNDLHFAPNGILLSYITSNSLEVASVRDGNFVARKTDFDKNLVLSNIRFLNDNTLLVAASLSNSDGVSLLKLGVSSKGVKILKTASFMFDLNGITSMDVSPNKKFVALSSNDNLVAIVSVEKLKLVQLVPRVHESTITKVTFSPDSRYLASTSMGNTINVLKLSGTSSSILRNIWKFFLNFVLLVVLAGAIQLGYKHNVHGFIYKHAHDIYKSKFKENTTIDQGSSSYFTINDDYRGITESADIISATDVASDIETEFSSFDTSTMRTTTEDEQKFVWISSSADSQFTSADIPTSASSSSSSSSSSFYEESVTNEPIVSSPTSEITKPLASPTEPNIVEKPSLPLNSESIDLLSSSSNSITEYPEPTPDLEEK
Nature of the assay: co-IP; octylglucoside-solubilized extracts of sed4Δ cells (or sed4Δ sec16Δ cells expressing Sec16 or Sec16^ΔS4B); immunoprecipitation with anti-Flag (anti-DDDDK) antibody, blot with anti-Flag and anti-V5; 25 mM HEPES pH 8.0, 150 mM NaCl, 1 mM EDTA, 5% glycerol, 4°C.

For assay [3], the target named is T2, Sed4^Δ942L–Flag (S. cerevisiae) (UniProt P25365).
T2 sequence: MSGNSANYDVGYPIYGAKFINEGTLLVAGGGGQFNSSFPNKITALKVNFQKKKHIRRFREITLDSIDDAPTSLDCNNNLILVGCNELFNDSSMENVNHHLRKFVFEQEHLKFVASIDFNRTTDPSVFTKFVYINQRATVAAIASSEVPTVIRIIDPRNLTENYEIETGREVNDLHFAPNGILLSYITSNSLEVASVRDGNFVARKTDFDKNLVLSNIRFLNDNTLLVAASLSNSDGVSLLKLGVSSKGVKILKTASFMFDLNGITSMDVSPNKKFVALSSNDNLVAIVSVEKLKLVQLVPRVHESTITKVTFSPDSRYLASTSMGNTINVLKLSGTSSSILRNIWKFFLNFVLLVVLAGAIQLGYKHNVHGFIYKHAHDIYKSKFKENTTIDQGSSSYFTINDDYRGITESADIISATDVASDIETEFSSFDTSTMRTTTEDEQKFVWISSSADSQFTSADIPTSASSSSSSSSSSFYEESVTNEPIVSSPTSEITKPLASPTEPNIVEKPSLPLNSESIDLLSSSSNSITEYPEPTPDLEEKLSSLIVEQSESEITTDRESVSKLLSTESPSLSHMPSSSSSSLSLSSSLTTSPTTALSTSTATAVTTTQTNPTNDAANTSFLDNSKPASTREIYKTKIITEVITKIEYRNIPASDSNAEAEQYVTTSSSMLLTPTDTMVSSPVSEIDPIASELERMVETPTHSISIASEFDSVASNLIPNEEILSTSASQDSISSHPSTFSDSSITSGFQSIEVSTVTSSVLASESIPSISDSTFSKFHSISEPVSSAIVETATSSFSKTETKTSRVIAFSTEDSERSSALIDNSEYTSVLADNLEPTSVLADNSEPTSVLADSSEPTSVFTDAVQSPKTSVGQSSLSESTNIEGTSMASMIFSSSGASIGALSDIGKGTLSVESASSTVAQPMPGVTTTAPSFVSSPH
Described as above.

A further assay deals with T3, Sed4–V5 (S. cerevisiae) (UniProt P25365).
T3 sequence: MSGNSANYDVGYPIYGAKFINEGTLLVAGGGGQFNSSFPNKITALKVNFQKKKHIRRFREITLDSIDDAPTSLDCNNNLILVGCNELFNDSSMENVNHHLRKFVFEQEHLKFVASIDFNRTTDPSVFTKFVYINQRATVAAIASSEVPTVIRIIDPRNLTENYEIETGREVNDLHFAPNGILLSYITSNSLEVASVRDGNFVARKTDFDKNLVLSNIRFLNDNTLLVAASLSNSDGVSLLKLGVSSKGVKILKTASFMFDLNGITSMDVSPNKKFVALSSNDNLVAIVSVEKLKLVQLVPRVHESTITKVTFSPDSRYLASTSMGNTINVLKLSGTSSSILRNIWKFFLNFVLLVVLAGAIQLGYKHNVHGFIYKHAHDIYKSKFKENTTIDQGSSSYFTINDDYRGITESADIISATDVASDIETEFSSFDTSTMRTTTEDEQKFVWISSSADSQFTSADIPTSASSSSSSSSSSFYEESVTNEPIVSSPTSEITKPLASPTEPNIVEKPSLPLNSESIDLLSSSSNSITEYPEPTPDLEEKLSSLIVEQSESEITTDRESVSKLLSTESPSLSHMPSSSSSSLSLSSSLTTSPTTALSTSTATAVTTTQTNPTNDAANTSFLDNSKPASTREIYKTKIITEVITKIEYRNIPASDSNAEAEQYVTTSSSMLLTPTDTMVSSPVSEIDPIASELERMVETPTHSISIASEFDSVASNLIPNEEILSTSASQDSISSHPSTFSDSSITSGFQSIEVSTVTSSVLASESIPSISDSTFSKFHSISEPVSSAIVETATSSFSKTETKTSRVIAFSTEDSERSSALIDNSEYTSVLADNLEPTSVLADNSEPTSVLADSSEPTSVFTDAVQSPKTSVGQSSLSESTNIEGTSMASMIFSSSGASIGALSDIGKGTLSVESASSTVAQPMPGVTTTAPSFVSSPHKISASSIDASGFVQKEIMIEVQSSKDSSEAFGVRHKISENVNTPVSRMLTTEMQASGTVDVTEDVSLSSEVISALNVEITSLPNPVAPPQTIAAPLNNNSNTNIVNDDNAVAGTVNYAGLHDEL
The assay is described as above.

For assay [4], the target named is T4, Sec23 (binding domain-fused) (S. cerevisiae) (UniProt P15303).
T4 sequence: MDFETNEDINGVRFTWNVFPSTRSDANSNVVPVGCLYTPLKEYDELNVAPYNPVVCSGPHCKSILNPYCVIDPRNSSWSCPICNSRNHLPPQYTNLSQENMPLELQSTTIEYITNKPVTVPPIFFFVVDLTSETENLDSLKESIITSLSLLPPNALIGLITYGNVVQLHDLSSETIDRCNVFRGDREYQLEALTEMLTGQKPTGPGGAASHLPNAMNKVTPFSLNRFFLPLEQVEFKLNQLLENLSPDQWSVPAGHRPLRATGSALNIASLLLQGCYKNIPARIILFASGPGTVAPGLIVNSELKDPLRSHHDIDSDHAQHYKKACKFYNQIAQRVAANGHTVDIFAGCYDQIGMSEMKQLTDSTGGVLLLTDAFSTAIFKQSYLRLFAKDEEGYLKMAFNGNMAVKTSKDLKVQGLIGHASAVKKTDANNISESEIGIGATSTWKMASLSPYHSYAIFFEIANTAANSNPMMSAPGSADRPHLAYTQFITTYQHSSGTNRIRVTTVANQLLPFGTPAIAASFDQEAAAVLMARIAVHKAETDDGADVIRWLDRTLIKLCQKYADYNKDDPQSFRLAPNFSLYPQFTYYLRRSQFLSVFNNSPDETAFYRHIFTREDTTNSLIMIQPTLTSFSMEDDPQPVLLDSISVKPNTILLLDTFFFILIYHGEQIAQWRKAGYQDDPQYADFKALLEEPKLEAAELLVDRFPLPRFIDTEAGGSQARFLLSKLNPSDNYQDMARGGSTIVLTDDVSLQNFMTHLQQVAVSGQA
As to the kind of experiment: two-hybrid; Gal4 activation domain-fused Sec16 fragments (pGAD-C1) with Gal4 DNA-binding domain-fused Sec23, Sed4C, Sec12C or Sec12C chimeras (pGBDU-C1); growth on plates lacking histidine, leucine and uracil at 30°C for 4 days.

Results are given in words; binding and its absence hold for the method and conditions named. For part of these data: Binding seen in cells or lysates may run through a third protein. Some entries that bind do so weakly or less than the wild type. Tags and fused reporters may be left off the sequences shown.

B1: Sed4–V5 (protein, UniProt P25365 1-1065)
chain: MSGNSANYDVGYPIYGAKFINEGTLLVAGGGGQFNSSFPNKITALKVNFQKKKHIRRFREITLDSIDDAPTSLDCNNNLILVGCNELFNDSSMENVNHHLRKFVFEQEHLKFVASIDFNRTTDPSVFTKFVYINQRATVAAIASSEVPTVIRIIDPRNLTENYEIETGREVNDLHFAPNGILLSYITSNSLEVASVRDGNFVARKTDFDKNLVLSNIRFLNDNTLLVAASLSNSDGVSLLKLGVSSKGVKILKTASFMFDLNGITSMDVSPNKKFVALSSNDNLVAIVSVEKLKLVQLVPRVHESTITKVTFSPDSRYLASTSMGNTINVLKLSGTSSSILRNIWKFFLNFVLLVVLAGAIQLGYKHNVHGFIYKHAHDIYKSKFKENTTIDQGSSSYFTINDDYRGITESADIISATDVASDIETEFSSFDTSTMRTTTEDEQKFVWISSSADSQFTSADIPTSASSSSSSSSSSFYEESVTNEPIVSSPTSEITKPLASPTEPNIVEKPSLPLNSESIDLLSSSSNSITEYPEPTPDLEEKLSSLIVEQSESEITTDRESVSKLLSTESPSLSHMPSSSSSSLSLSSSLTTSPTTALSTSTATAVTTTQTNPTNDAANTSFLDNSKPASTREIYKTKIITEVITKIEYRNIPASDSNAEAEQYVTTSSSMLLTPTDTMVSSPVSEIDPIASELERMVETPTHSISIASEFDSVASNLIPNEEILSTSASQDSISSHPSTFSDSSITSGFQSIEVSTVTSSVLASESIPSISDSTFSKFHSISEPVSSAIVETATSSFSKTETKTSRVIAFSTEDSERSSALIDNSEYTSVLADNLEPTSVLADNSEPTSVLADSSEPTSVFTDAVQSPKTSVGQSSLSESTNIEGTSMASMIFSSSGASIGALSDIGKGTLSVESASSTVAQPMPGVTTTAPSFVSSPHKISASSIDASGFVQKEIMIEVQSSKDSSEAFGVRHKISENVNTPVSRMLTTEMQASGTVDVTEDVSLSSEVISALNVEITSLPNPVAPPQTIAAPLNNNSNTNIVNDDNAVAGTVNYAGLHDEL
Consider B1, for which the binding result is reported as “no binding” in assay [1]; “binds” with Sec16–HA (S. cerevisiae); “binds” in assay [2]; “binds” in assay [3]; “binds” with Sed4–V5 (S. cerevisiae).

B2: Sec16 fragment 1639–1967 (activation domain-fused) (domain or fragment, UniProt P48415 1639-1967)
chain: MYSPSVEALPIDPVVPQVHETGYNDFGNKHSQKSMPEDESHTSHDNSNADQNTLKDSADVTDETMDIEGPGFNDVKNLLPMEPNHQPTSTVNPIQTISDDIQPILQTNVEVRGTDASKMENSLPSIENERSSEEQPENISKSASSAYLPSTGGLSLENRPLTQDENSISETVQSTYLPAGSISMEAKPISQVQDVPRNVNNKASKLVEQHMAPPKPKSTDATKMNYSPYVPQSTAASADGDESTILKTSPAIYARTHQAHASNPSQYFPLVNQANETASFELSESTSQAQSNGNVASENRFSPIKKAEVVEKDTFQPTIRKASTNQYRA
B2: the binding entry in assay [4] is “no binding”.
